PubChem BioAssay AID1745853 (National Center for Advancing Translational Sciences (NCATS), 2022)
The other results are listed elsewhere or left out. Further columns of the screen follow, without active or inactive calls.

Key:
Experiment in all cases: Primary Screen for Target Class Profiling of Small Molecule Inhibitors of Methyltransferases
[1] = target: Glycine N-methyltransferase (Homo sapiens) (UniProt Q14749); settings: purified enzyme, MTase-Glo SAH luminescence; measured here: GNMT inhibition; at 40 µM; stronger effect = lower value
In short: (§1)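 Each enzyme was assayed with SAM and its substrate. SAH formation detected by MTase-Glo luminescence; single-point 40 uM screen[…].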

[2] = target: Guanidinoacetate N-methyltransferase (Homo sapiens) (UniProt Q14353); settings: purified enzyme, MTase-Glo SAH luminescence; measured here: GAMT inhibition; at 40 µM; stronger effect = lower value
In short: as §1

[3] = target: Histamine N-methyltransferase (Homo sapiens) (UniProt P50135); settings: purified enzyme, MTase-Glo SAH luminescence; measured here: HNMT inhibition; at 40 µM; stronger effect = lower value
In short: as §1

[4] = target: Nicotinamide N-methyltransferase (Homo sapiens) (UniProt P40261); settings: purified enzyme, MTase-Glo SAH luminescence; measured here: NNMT inhibition; at 40 µM; stronger effect = lower value
In short: as §1

[5] = target: Phenylethanolamine N-methyltransferase (Homo sapiens) (UniProt P11086); settings: purified enzyme, MTase-Glo SAH luminescence; measured here: PNMT inhibition; at 40 µM; stronger effect = lower value
In short: as §1
On the % scale 0 is the no-effect control and ±100 the full control effect.

SMILES	activity change, negative = inhibition [1]	activity change, negative = inhibition [2]	activity change, negative = inhibition [3]	activity change, negative = inhibition [4]	activity change, negative = inhibition [5]
COc1ccc(CCC(=O)Nc2nc3ccc(Cl)cc3s2)cc1OC	-19.9%	0.268%	9.88%	-15.5%	3.8%
COc1ccc(CCn2nnnc2C2(c3ccc(C)cc3)CC2)cc1	1.46%	14.7%	11.1%	-11.2%	0.176%
CNC(=O)NCCc1ncc(C)n1C1CCCCCCC1	-0.488%	-1.59%	-57%	-3.51%	0.4%
O=C(NCc1ccccn1)c1ccc2c(=O)nc3c(-c4ccc(F)cc4)n[nH]n3c2c1	-15.3%	0%	1.67%	3.11%	-2.85%
Cc1ccc(OCC(=O)N2CCCC(CN3CCCC3)CC2)cc1 (stereo not drawn)	-9.22%	-2.91%	-25.7%	-5.04%	-11.5%
C=C1C(=O)O[C@H]2[C@H]1CC/C(C)=C/CC[C@@]1(C)O[C@@H]21	-3.5%	-16.4%	-5.47%	-21.5%	-6.22%
CCOC(=O)C1CCCN(c2nc3c(S(=O)(=O)c4ccc(C(C)C)cc4)nnn3c3ccccc23)C1 (stereo not drawn)	-18.9%	0%	8.8%	-4%	-0.547%
CC(C)n1c(=O)c2ccc(C(=O)NC3CCCCC3)cc2n2c(=O)n(Cc3cccc(Cl)c3)nc12	4.45%	0%	9.1%	7.27%	6.37%
CN(C)C(=O)N1CCCC(C(=O)NCCc2nc(-c3ccccn3)no2)C1 (stereo not drawn)	2.79%	-3.25%	-0.534%	-0.402%	-3.82%
CC1(C(=O)NC2CCCCCCC2)Cn2c(cc3sccc32)C(=O)N1Cc1ccc2c(c1)OCO2 (stereo not drawn)	-4.06%	4.66%	-2.1%	-3.49%	1.16%
CCOC(=O)c1cc2n(n1)CC(C)(C(=O)NCc1ccc(F)cc1)N(c1cccc(CC)c1)C2=O (stereo not drawn)	1.57%	2.31%	8.66%	2.22%	1.22%
CCOC(=O)c1cc2n(n1)CC(C)(C(=O)NC1CCCCCC1)N(c1ccc(C)c(Cl)c1)C2=O (stereo not drawn)	2.5%	3.99%	2.04%	0.725%	4.79%
CC1(C(=O)NCc2ccccc2)Cn2nc(-c3ccccc3)cc2C(=O)N1c1ccc2c(c1)OCO2 (stereo not drawn)	-0.056%	3.41%	-1.51%	-3.12%	-1.26%
CCOc1ccc(CCNC(=O)CCc2nnc3n(CC(C)C)c(=O)c4ccccc4n23)cc1	-3.42%	3.74%	1.21%	-3.77%	-2.39%
Cc1ccc(N2C(=O)c3cc(-c4cccs4)nn3CC2(C)C(=O)NC2CCCCC2)cc1 (stereo not drawn)	4.99%	7.33%	9.77%	11.6%	4.28%
C[C@]12CC[C@@H]3c4ccc(O)c(O)c4CC[C@H]3[C@@H]1CCC2=O	-14%	-17.5%	-3.74%	-29.7%	-21.5%
O=C(CCNC(=O)c1cnccn1)NC1CCCc2c1[nH]c1ccc(Cl)cc21 (stereo not drawn)	-11.5%	-7.97%	-1.41%	-18.8%	3.46%
COc1ccc2cc(C3CN(C(=O)CNC(=O)C(C)C)CCO3)ccc2c1 (stereo not drawn)	-0.97%	1.54%	1.61%	-9.11%	15.3%
CCOC(=O)N1c2ccc(C(F)(F)F)cc2[C@@H](N(Cc2cc(C(F)(F)F)cc(C(F)(F)F)c2)C(=O)OC)C[C@H]1CC		-16.6%		-23.9%	-5.01%
COc1cc(C)cc(C(C(=O)O)N2CCN(c3cnccn3)CC2)c1OC (stereo not drawn)	-2.67%	-4.53%	-1.4%	-11.1%	-4.98%

SMILES	activity change, negative = inhibition [1]	activity change, negative = inhibition [2]	activity change, negative = inhibition [3]	activity change, negative = inhibition [4]	activity change, negative = inhibition [5]
COc1ccc(OC)c(CCN2C(=O)c3cc4ccccc4n3CC2(C)C(=O)NCc2ccccc2OC)c1 (stereo not drawn)	5.2%	0%	6.06%	7.33%	0.532%
C=CCNC(=O)c1ccc2c(=O)[nH]c3c(C(=O)NC(C)C)sc(=S)n3c2c1	-7.99%	4.78%	4.48%	-11.9%	-24.5%
CC(NC(=O)Cn1c(=O)oc2cc(S(=O)(=O)NC3CCCC3)ccc21)c1ccccc1 (stereo not drawn)	-1.71%	0.508%	-4.17%	-7.55%	-6.36%
O=C(NCCN1CCCC1)c1cc2n(n1)CCCN(Cc1ccc(Cl)cc1)C2=O	-4.38%	0%	-12.2%	-2.95%	0.239%
O=S(=O)(N[C@H]1CO[C@H]2[C@@H]1OC[C@H]2O)c1ccc(Cl)cc1	-3.02%	-0.791%	-0.09%	-5.52%	-2.18%
Cc1ccc(NS(=O)(=O)c2ccc3c(c2)[C@H]2C=CC[C@H]2[C@@H](c2cccc(Cl)c2)N3)cc1C	-16.4%	-3.31%	-9.93%	-17.1%	-7.4%
COc1ccccc1N1CCN(S(=O)(=O)c2ccc3c(c2)n(C)c(=O)n3C)CC1	1.68%	0.406%	9.14%	14.7%	2.25%
C=C1[C@H]2CC[C@H](C(=O)O)[C@@]23CC[C@H](C3)C1(C)C	-9.93%	-22.7%	-2.52%	-38.7%	-5.6%
O=C(Cn1nc2n(CCc3ccccc3)c(=O)c3ccccc3n2c1=O)Nc1ccc(F)cc1F	-1.6%	2.07%	3.6%	-5.66%	-1.04%
Cc1[nH]c2ccccc2c1CC(=O)NCc1ccccc1-n1cncn1	-0.564%	4.73%	2.92%	-4.43%	10.3%
CN(C)C[C@@H]1CN(C2CCOCC2)C[C@H]1NC(=O)C1CC=CCC1 (stereo partly drawn)	-7.01%	-7.46%	-4.79%	-8.11%	-3.56%
Cc1cnc(C(=O)NC2CC(c3nnc(CO)n3C3CC3)C2)[nH]1 (stereo not drawn)	-7.52%	-8.8%	-3.48%	-11%	1.68%
O=C(c1cccc(F)c1F)N1CCCC2(CCNCC2)CC1	0.98%	0.618%	-2.76%	5.15%	-1.31%
CCN(CC)CCNC(=O)CCc1nnc2n(Cc3ccccc3Cl)c(=O)c3ccccc3n12	-3.23%	-11.6%	-35.1%	-1.89%	-7.36%
Cc1cnn(-c2cc(N3CCC(n4cc(C5CCCC5)nn4)CC3)ncn2)c1	-16.2%	-0.888%	-11.7%	-12.9%	-1.02%
Cc1cccc(C(=O)N2CCC(c3noc(CO)n3)C2)c1 (stereo not drawn)	-2.81%	-2.02%	-0.014%	-10%	-5.72%
CCCN1C(=O)c2c(C(=O)Nc3c(C)cc(C)cc3C)ncn2CC1(C)C(=O)NC1CCCC1 (stereo not drawn)	-4.02%	0%	-3.42%	-3.28%	-0.284%
CC(C)CCn1c(=O)c2ccccc2n2c(CCC(=O)NCCCN3CCOCC3)nnc12	-4.05%	4.25%	-3.83%	9.5%	-0.508%
O=C1Nc2ccccc2C2(CCN(C(=O)c3cccnc3)C2)O1 (stereo not drawn)	-19.6%	-5.99%	-3.47%	-16.6%	-2.43%
